Here are results for 39 molecules from paper PMC12040169 (PLOS Biology, 2025).

Read-outs that look alike come from different tables or passages of the source. Some of the results follow.

In this assay the test system is T1, C. trachomatis L2/434/Bu expressing GFP (CTL2-GFP).
T1 construct: L2/434/Bu GFP intracellular growth in HeLa cells
The arrangement: species or system HeLa; C. trachomatis total inclusion area by high-content imaging, normalised to DMSO. Summed up: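 After bulk GFP and resorufin fluorescence reads, cells were fixed, stained with Hoechst and imaged by high-content microscopy. Inclusion area and number (GFP) stood in for chlamydial growth, nuclei count (Hoechst) for host cell viability. MICs were derived as for the bulk readout.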

[1] abbreviates: total inclusion area; 28.5 h, 10 µM; inhibitor.

Regarding `O=C(Cn1cc(-c2ccc(CN3CCCCC3)cc2)nn1)NCc1ccc(OC(F)F)cc1` [CBK167514], the “% of control remaining” value under setting [1] came out at 86.8432.

Regarding `CCc1ccc2c(c1)C(CCNC(=O)c1cscc1C(F)(F)F)C(=O)N2` (stereo not drawn) [CBK304728], the “% of control remaining” value under setting [1] is recorded as 97.4938.

For the molecule `Cc1cc(C(=O)N2CCC(Cc3ccccc3)CC2)n[nH]1` [CBK200187], the “% of control remaining” value under setting [1] is recorded as 90.8184.

Consider `O=C(Cc1ccsc1)N1CCCC2(CCN(Cc3ccccc3)C2)C1` (stereo not drawn) [CBK136868], for which the “% of control remaining” value under setting [1] is reported as 116.423.

Turning to `CC(C)(C)C(=O)N1CCN(Cc2ccc3c(c2)OCO3)CC1` [CBK074842], the “% of control remaining” value under setting [1] stood at 90.5061.

With `O=C(Cn1ncn2nc(-c3ccccc3)cc2c1=O)Nc1ccc(F)cc1` [CBK287759], the “% of control remaining” value under setting [1] is listed as 89.9769.

Regarding `Cc1ccccc1N1CCN(C(=O)c2c(C)oc3cc4c(C(=O)N5CCN(c6ccccc6C)CC5)c(C)oc4cc23)CC1` [CBK264833], the “% of control remaining” value under setting [1] is 107.959.

For `Cc1cccc(-c2ocnc2C(=O)NCCCn2ccnc2)c1` [CBK282418], under setting [1], the “% of control remaining” value is 35.3652.

For the molecule `Cc1ccc(-c2nc3cc(Cl)ccc3o2)cc1NC(=S)NC(=O)c1cccc(Cl)c1` [CBK264022], the “% of control remaining” value under setting [1] turned out to be 76.8611.

Regarding `Nc1nc(NCCOc2ccccc2Cl)cc(C2CC(N)C2)n1` (stereo not drawn) [CBK306825], the “% of control remaining” value under setting [1] amounted to 46.7156.

In the case of `CC(C)CCNC(=O)c1c(O)c2ccccc2[nH]c1=O` [CBK159975], the “% of control remaining” value under setting [1] came out at 104.743.

As to `COc1cc(-c2ccc3ccc(N)nc3n2)cc(OC)c1OC` [CBK061866], the “% of control remaining” value under setting [1] was 129.037.

Take `CCc1cc(=O)[nH]c(-c2ccc(N3CC(C(N)=O)CCC3C)nc2)n1` (stereo not drawn) [CBK306448]: the “% of control remaining” value under setting [1] turned out to be 103.422.

As to `CC(C)CCn1c(=S)[nH]c2c(oc3ccccc32)c1=O` [CBK288504], the “% of control remaining” value under setting [1] was 98.9984.

Regarding `Cc1cc(Cl)cc(Br)c1OCCNCCN(C)C` [CBK267791G], under setting [1], the “% of control remaining” value amounted to 66.4825.

For `Cc1ccc(C(=O)O)cc1S(=O)(=O)N(CCO)CCO` [CBK267335], the “% of control remaining” value under setting [1] is reported as 107.208.

Consider `CC1CC(C)CN(C(=O)c2cc(S(=O)(=O)N3CCOCC3)ccc2Cl)C1` (stereo not drawn) [CBK305000], for which the “% of control remaining” value under setting [1] is given as 40.3862.

Consider `COCCCOc1cncc(NC(C)C)n1` [CBK115880], for which the “% of control remaining” value under setting [1] was determined as 107.485.

In the case of `COc1cc(-c2cnc3[nH]c(=O)n(C4CCOCC4)c3n2)cc(OC)c1OC` [CBK064255], under setting [1], the “% of control remaining” value was 120.428.

Turning to `O=C(O)C1C2C=CC(C2)C1C(=O)N1CCN(C(c2ccccc2)c2ccccc2)CC1` (stereo not drawn) [CBK262659], under setting [1], the “% of control remaining” value is 101.131.

On to `COc1ccc2[nH]c3c(c2c1)CCN(S(C)(=O)=O)C31CCN(CCOc2ccccc2)C1` (stereo not drawn) [CBK063187T], for which the “% of control remaining” value under setting [1] is on record as 96.5007.

Take `Cn1nc(C(C)(C)C)cc1C(=O)N1CCNC(=O)C1Cc1ccccc1-c1ccc(F)cc1` (stereo not drawn) [CBK285830]: the “% of control remaining” value under setting [1] stood at 91.4794.

On to `Cc1cc2c(s1)c1cnn(Cc3cccnc3)c(=O)c1n2C` [CBK284154], for which the “% of control remaining” value under setting [1] came out at 108.266.

In the case of `Clc1ccc(COc2nccnc2OC2CCN(CC3CC3)CC2)cc1Cl` [CBK083123], the “% of control remaining” value (total inclusion area, 28.5 h, 10 µM, inhibitor) is given as 111.977.

As for `CN1CCN(S(=O)(=O)c2ccc(Br)cc2C(F)(F)F)CC1` [CBK062437], under setting [1], the “% of control remaining” value came out at 67.0821.

Take `Nc1ncc(-c2ccccc2)nc1NC1CCOCC1` [CBK063748]: the “% of control remaining” value under setting [1] was 140.343.

On to `CCOC1=NCCN2CCc3cccc1c32` [CBK023113], for which the “% of control remaining” value under setting [1] came to 78.2229.

`COc1cccc(-c2nccc3ccn(CC(=O)N4CC=CCC4)c23)c1` [CBK284806]: the “% of control remaining” value under setting [1] was found to be 106.625.

In the case of `N#C/C(=C\c1cn(Cc2ccc(Cl)cc2Cl)nc1-c1ccccc1)c1nc2ccccc2[nH]1` [CBK262545], under setting [1], the “% of control remaining” value amounted to 98.8835.

As for `N/C(=N\OC(=O)c1cccc(Br)c1)c1ccccc1` [CBK261703], under setting [1], the “% of control remaining” value turned out to be 90.961.

Take `CCCN(C)Cc1ccc(-c2nnn(CC(=O)NCc3ccc(CC)cc3)n2)cc1NC(C)=O` [CBK164703]: the “% of control remaining” value under setting [1] was determined as 27.0796.

Turning to `Cc1nnc(SCC(=O)N/N=C/c2cc([N+](=O)[O-])ccc2O)n1-c1ccccc1` [CBK262768], the “% of control remaining” value under setting [1] is 101.513.

For the molecule `O=C(CCn1cnc2ccccc21)N1CCC(c2ccncc2)CC1` [CBK283522], the “% of control remaining” value under setting [1] is 83.179.

Regarding `Cc1noc(C)c1C(=O)Nc1cnc(-c2ccc(F)cc2)c(-c2ccsc2)n1` [CBK036781], under setting [1], the “% of control remaining” value worked out at 85.0725.

For the molecule `Cc1noc(C)c1C(=O)N1CCCCCC1c1c(Cl)cnn1C` (stereo not drawn) [CBK284918], the “% of control remaining” value under setting [1] was 108.862.

In the case of `c1ccc(CN2C[C@H]3CCc4c[nH]nc4[C@H]3C2)nc1` [CBK282108], the “% of control remaining” value under setting [1] is 120.991.

Consider `COc1ccc(C(C)c2cc3c(cc2N)OCO3)cc1` (stereo not drawn) [CBK200102T], for which, under setting [1], the “% of control remaining” value worked out at 54.9286.

With `CC(C)CC(NC(=O)c1ccccc1)C(=O)OCC(=O)Nc1nc2ccccc2s1` (stereo not drawn) [CBK085134], the “% of control remaining” value under setting [1] turned out to be 103.875.

As for `COc1ccccc1CNC(=O)c1ccc2nc(C)c(N(C)C(=O)c3cccs3)n2c1` [CBK146546], the “% of control remaining” value under setting [1] is 120.787.
